Test results reported in the supplement of paper PMC3334620.
In all, about 33,000 sequences were measured (“E-score (-0.5 to 0.5)”: median about -0.053, highest 2% from about 0.37 on). This is one part of the list.

molecular target: Hap1 (UniProt P0CE41); test: PBM E-score (8-mer binding enrichment) (E-score (-0.5 to 0.5)); higher = stronger / more preferred TF binding; most listed sequences are background and not binding sites; details: protein concentration: 200 nM; construct: GST-DNA-binding domain
Sequence of UniProt P0CE41 (P0CE41 whole entry, the tested form may be a part): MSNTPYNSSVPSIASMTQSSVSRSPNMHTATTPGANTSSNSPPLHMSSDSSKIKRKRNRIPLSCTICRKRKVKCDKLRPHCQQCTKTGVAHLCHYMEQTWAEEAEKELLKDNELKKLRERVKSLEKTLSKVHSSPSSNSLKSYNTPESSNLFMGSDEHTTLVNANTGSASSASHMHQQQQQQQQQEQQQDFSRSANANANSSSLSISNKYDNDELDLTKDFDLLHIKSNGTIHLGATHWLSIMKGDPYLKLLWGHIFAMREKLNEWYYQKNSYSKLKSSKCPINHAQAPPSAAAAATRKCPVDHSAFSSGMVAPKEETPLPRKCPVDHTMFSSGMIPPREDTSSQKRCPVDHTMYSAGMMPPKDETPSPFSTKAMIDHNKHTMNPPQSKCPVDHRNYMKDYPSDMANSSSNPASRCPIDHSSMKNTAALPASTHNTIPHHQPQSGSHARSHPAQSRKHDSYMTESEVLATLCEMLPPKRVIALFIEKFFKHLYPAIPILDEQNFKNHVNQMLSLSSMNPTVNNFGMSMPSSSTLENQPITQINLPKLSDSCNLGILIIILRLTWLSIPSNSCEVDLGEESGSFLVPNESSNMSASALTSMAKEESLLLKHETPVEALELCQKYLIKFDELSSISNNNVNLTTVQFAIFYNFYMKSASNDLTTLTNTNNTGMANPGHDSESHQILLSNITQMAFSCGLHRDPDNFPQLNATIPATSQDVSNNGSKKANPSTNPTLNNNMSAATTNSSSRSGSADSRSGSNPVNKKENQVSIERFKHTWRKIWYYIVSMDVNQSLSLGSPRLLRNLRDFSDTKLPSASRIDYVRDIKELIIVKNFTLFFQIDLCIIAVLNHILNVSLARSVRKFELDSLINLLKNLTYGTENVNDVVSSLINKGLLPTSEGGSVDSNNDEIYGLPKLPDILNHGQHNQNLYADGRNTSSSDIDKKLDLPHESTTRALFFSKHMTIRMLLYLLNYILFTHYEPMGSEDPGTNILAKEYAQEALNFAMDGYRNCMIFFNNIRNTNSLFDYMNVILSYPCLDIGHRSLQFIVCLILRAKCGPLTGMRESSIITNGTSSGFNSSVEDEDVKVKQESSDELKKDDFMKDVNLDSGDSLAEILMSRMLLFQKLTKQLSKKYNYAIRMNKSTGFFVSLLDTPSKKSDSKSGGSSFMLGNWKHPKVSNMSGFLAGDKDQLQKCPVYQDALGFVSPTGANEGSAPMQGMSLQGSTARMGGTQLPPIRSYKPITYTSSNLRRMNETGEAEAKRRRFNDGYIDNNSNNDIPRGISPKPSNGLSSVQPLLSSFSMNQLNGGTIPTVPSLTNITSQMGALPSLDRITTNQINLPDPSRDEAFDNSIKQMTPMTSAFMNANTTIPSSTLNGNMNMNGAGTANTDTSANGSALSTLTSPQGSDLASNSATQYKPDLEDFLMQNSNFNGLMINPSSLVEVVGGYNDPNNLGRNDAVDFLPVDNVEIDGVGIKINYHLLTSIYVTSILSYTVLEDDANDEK
Protocol: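 Universal 'all 10-mer' protein binding microarrays (Agilent AMADID 015681) probed with GST-tagged S. cerevisiae TFs (full-length or DBD) made by in vitro transcription/translation (PURExpress), about 100-200 nM. Bound TF was detected with fluorescent anti-GST. Each ungapped 8-mer (which stands for itself and its reverse complement) is scored by the PBM enrichment score (E-score), a modified Wilcoxon-Mann-Whitney statistic from -0.5 to +0.5, computed with the Universal PBM Analysis Suite. Scale: above 0.35 generally sequence-specific binding.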

Sequence | PBM E-score
CCGTGCCG | 0.168
CTTTACCA | -0.248
CGTACAAA | -0.107
ATTCCGTG | 0.294
ACTATCTA | -0.0129
CAGAAGAG | -0.357
CCGTCGCG | 0.162
AAATTTGT | -0.0213
AGGAAGAT | -0.0291
GAGAAGAC | -0.0696
GGTGTTTA | 0.293
CCGAGAGG | 0.153
GTTCGGGA | 0.204
CAGCCTCG | -0.0531
GAGCAAGA | -0.0171
CAACGATA | 0.116
ATGCCAAC | -0.106
AAATCTAG | -0.13
GTGTTAGA | -0.0664
GCGACTGA | -0.184
AGGAGTCG | -0.214
AGATCCGC | 0.263
CAGCACAG | -0.217
GCTGGCAA | -0.0328
ATTAGTGC | 0.0555

Sequence | PBM E-score
TCAGGCGA | -0.0547
CACAGCGG | -0.0883
AATAGGGA | -0.146
GAACAATA | 0.0036
CTGCGCAG | -0.0918
ATCTTCTC | 0.129
CCTGGATC | -0.133
CTCACGCA | -0.0227
CCATGCCC | 0.0965
ACCCGCAA | 0.143
ACTTGTTA | -0.112
CGAACCTA | 0.0968
ATTATAAC | 0.209
CTGGGCCA | -0.139
GTGGGTAA | -0.0375
ACTGAAGT | -0.167
GACAGGCA | -0.16
ATTCGATC | 0.0801
AAAGTATT | -0.211
CGGTGTAA | 0.114
CACGCGCC | 0.123
GGTATAGA | -0.0194
GAGCAGGC | -0.161
AGCCCCGA | 0.333
ATCATAAG | -0.106

Sequence | PBM E-score
TAGGCCAA | -0.0647
CGCTCAAC | -0.104
ATAATAAT | -0.084
ACATTCGA | -0.0575
ACCCCCGC | 0.217
AGCAGGAT | -0.0378
GAACAGAC | -0.0139
GTTGGGAA | -0.0676
GGGATATA | 0.21
AGCCGGGC | 0.173
CGTAGGAG | 0.0115
ACTGGTCC | 0.173
ATAACTAA | -0.0341
CACGTCAG | -0.2
ATGTTTAC | -0.03
AAACCTTG | -0.278
TCCATCAA | 0.0213
GGAGGTGA | 0.031
AGTCAACC | -0.0124
GATGCTTA | -0.0957
GGCTGCAC | 0.00187
GGCATTAA | 0.221
AAGTATCT | -0.0978
GCGCAGAA | -0.0987
ATCCGGAG | 0.424

Sequence | PBM E-score
CGCCTGTA | 0.0724
AATAAATG | 0.0315
AAACAATG | -0.164
GTGGGCTA | -0.262
AGAAGTCG | -0.0961
CATGTCTA | -0.231
ACATGCAT | -0.17
GTGGATGA | -0.266
CCCACCGG | 0.374
AGAAATAA | 0.0188
AATGGTGA | -0.253
GCCATAGA | -0.189
CGGCGAAA | 0.32
AATCTTAA | -0.153
AGACTTAA | -0.18
CGGGCTGA | 0.196
AGCACGGC | 0.14
ACAGGAGT | -0.116
GAGTCCCC | -0.181
ATCCAATC | -0.0654
ACTTAGAA | -0.237
TACGCTGA | -0.0321
GTCAGAGA | -0.155
TTATGGAA | 0.0178
ATTGACGA | -0.132

Sequence | PBM E-score
ATGCAAAC | -0.165
CCCATAAA | -0.0271
CAGCCTGA | -0.142
ACTTTTAC | 0.13
CTCGCCCA | -0.0894
TAAAGCAA | -0.0198
CATTGCAA | -0.133
AATGCCGT | 0.334
AGGACGAA | 0.128
CATGAGCC | -0.25
ATTGGGGA | -0.0998
AATCACTA | -0.018
CGCAGTAG | -0.0792
AGCCTTCA | -0.144
CTAGTGAC | -0.106
TGCAGCCA | -0.0851
AATTGCCA | -0.0725
CCATAGCG | 0.025
ATTGTCCG | 0.396
AACACCTC | -0.171
CGCATCGA | 0.0796
AGCCAGCT | -0.172
TATCACCA | 0.021
GGTACAAA | -0.0347
CTCGATGA | -0.0974

Sequence | PBM E-score
GAAGATGC | -0.137
ACGCGGTG | 0.0771
AATACAAA | 0.00742
CCGATATC | 0.458
AAGGGCTG | -0.206
CGCCAAAC | -0.00241
GAACCTAA | 0.125
GGAGGGAA | 0.0256
CAGACAGG | -0.12
GGCGATCA | 0.0275
AGATTGGA | -0.12
CCTATACC | 0.0436
ATTACGTC | -0.00167
CGCATAAC | 0.0442
AACTTGCT | -0.0947
TATTCCGA | 0.357
ACCTGGAG | -0.129
TACTGCAA | -0.113
GACTTCCC | -0.082
CGAAACAC | 0.0343
GCTCGACA | -0.348
CAGGCCTC | -0.24
CACGATTC | 0.0362
AACAAGGC | -0.224
AGATGCTA | -0.122

Sequence | PBM E-score
ACACGTGG | -0.174
ATGACAGG | -0.207
AAATGCAT | 0.0115
CTGTCGGA | 0.23
AACATGGG | 0.00616
GGCATAAC | -0.0753
ACAAGTCA | -0.216
TACAGTGA | -0.289
CCAATCGC | -0.0737
AGCAAGGC | -0.134
ACCCTTGG | -0.108
TCCAGCCA | -0.17
TGCAGGCA | -0.237
CTAGAGGC | -0.266
CCGTCTCG | 0.176
GTGCCGGA | 0.406
AACCACTA | -0.244
GCTTAACC | -0.0526
GGACGGGA | 0.145
GAGTAAGA | 0.0219
ATCACGGC | 0.134
GTTCCTGA | -0.242
AATATGAT | -0.0387
AGTGACGC | 0.0181
CGCTTTTA | 0.273

Sequence | PBM E-score
ACGATCGA | -0.12
AGTGCAGC | -0.0508
GACCAACA | 0.0331
ATAGAAGA | -0.137
ACATAGGT | -0.216
GCATCATA | -0.128
TCATAGAA | -0.0525
GACGATAC | 0.0839
GAAAGTAC | -0.014
AGAGCCCC | -0.0378
CCACATAC | -0.127
ACACTTGA | -0.275
CCTACGCC | -0.195
AGAGCGAG | 0.0379
ACACACCA | -0.281
GTAGACGA | -0.353
ATCACGCC | 0.0803
CCGAGCCA | 0.347
ATATTGGA | -0.0614
TCAGGAAA | -0.209
CTCGGTCA | 0.342
AAGTGATC | -0.139
GATTACGC | 0.0802
ACCCGGGG | 0.306
TAGTGGGA | -0.0386

Sequence | PBM E-score
AGACAATA | 0.0156
CATTATCA | -0.162
ACCGCTAA | 0.217
AGCGAAAG | -0.125
AATTTAAT | -0.118
GCGAGAGC | 0.0138
GCAAATGA | -0.0534
CAAATGCA | -0.261
AATTTGCT | 0.033
TAGTATGA | -0.0439
CGAAAGAG | 0.0191
GAAAGCGA | -0.0815
AACTGCTA | -0.143
AGCCTCTG | -0.228
ACATCCAT | -0.093
GATCTAGA | -0.054
AACTAAGA | 0.0438
CCCAAAGA | -0.0865
CAGGTGTC | -0.025
